# Test results as given in the supplement of paper PMC4967469.
# pIC50: −log10 of the molar value. By IC50 is meant the dose at which the fit gives 50% viability; a fit beyond the top or the lowest dose is shown as a bound at that dose. AUC sums up the same curve from the lowest dose to the 256-fold higher top dose; values near 1 show little effect. For some assays here: Where the top dose is marked as inferred, it comes from the curve model; the source does not state it.
# Columns and labels:
# Test in all cases: Viability of human cancer cell lines after 72 h of drug (GDSC screen)
# [1] = compound: CC(=O)Nc1nc(C)c(-c2ccc(Cl)c(S(=O)(=O)NCCO)c2)s1 [PIK-93]; details: top dose 20 µM
# Procedure: (§1)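 Human cancer cell lines in 384-well plates, medium with 10% serum, drug for 72 h over a 256-fold dose range (nine 2-fold or five 4-fold steps up to the top dose). Adherent lines were fixed and stained with the nucleic acid dye Syto60, suspension lines read with resazurin; signal relative to control wells, capped at 0 and 100%. One two-parameter sigmoid per drug and line, fitted in a mixed model over all curves with the slope shared within a line.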
# [2] = compound: CC1(C)CCC(c2ccc(Cl)cc2)=C(CN2CCN(c3ccc(C(=O)NS(=O)(=O)c4ccc(N[C@H](CCN5CCOCC5)CSc5ccccc5)c(S(=O)(=O)C(F)(F)F)c4)cc3)CC2)C1 [ABT-263]; details: top dose 2 µM; top dose inferred
# Procedure: as §1
# [3] = compound: COc1cc(/C=C/C(=O)N2CCC=CC2=O)cc(OC)c1OC [piperlongumine]; details: top dose 10 µM
# Procedure: as §1
# [4] = compound: Cn1cc(/C=C2\C(=O)Nc3cccnc32)c2ccccc21 [GW 441756]; details: top dose 2 µM; top dose inferred
# Procedure: as §1
# [5] = compound: COc1cc2ncn(-c3cc(OCc4ccccc4C(F)(F)F)c(C(N)=O)s3)c2cc1OC [GW843682X]; details: top dose 0.256 µM
# Procedure: as §1
Cell Line,AUC [1],pIC50 [1],AUC [2],pIC50 [2],AUC [3],pIC50 [3],AUC [4],pIC50 [4],AUC [5],pIC50 [5]
"SW1573 (lung adenocarcinoma, adherent)",0.979,< 4.70,0.966,< 5.70,0.757,5.34,0.973,< 5.70,,
"SW1710 (bladder, adherent)",0.693,5.35,0.959,< 5.70,0.683,5.69,0.983,< 5.70,,
"SW1783 (glioma, adherent)",0.942,< 4.70,0.952,< 5.70,0.696,5.68,0.991,< 5.70,,
"Saos-2 (osteosarcoma, adherent)",0.981,< 4.70,0.961,< 5.70,0.763,5.29,0.98,< 5.70,,
"SiHa (cervix, adherent)",0.987,< 4.70,0.982,< 5.70,0.709,5.57,0.888,< 5.70,,
"T47D (breast, adherent)",0.439,6.11,0.971,< 5.70,0.755,5.28,0.893,< 5.70,,
"T84 (large intestine, adherent)",0.86,4.76,0.971,< 5.70,0.837,5.16,0.98,< 5.70,,
"T98G (glioma, adherent)",0.82,4.98,0.953,< 5.70,0.814,,0.989,< 5.70,,
"T-T (oesophagus, adherent)",0.831,4.90,0.912,< 5.70,0.787,5.36,0.973,< 5.70,,
"TE-4 (oesophagus, adherent)",0.975,< 4.70,0.923,< 5.70,0.829,5.21,0.897,< 5.70,,
"TGBC11TKB (stomach, adherent)",0.846,4.92,0.902,< 5.70,0.855,5.18,0.986,< 5.70,,
"TGBC24TKB (biliary tract, adherent)",0.904,< 4.70,,,0.969,< 5.00,,,0.572,7.61
"TMK-1 (stomach, adherent)",0.879,< 4.70,0.985,< 5.70,0.858,5.04,0.938,< 5.70,,
"TOV-21G (ovary, adherent)",0.974,< 4.70,0.926,< 5.70,0.67,5.71,0.972,< 5.70,,
"TOV-112D (ovary, adherent)",0.751,5.18,0.848,5.82,0.807,5.28,0.967,< 5.70,,
"TT2609-C02 (thyroid, adherent)",0.938,< 4.70,0.902,< 5.70,0.974,< 5.00,0.962,< 5.70,,
